# Results published in the supplement of paper PMC3724861.
# Some of the results follow.
# Test system: T1, Caupolican (Caup) homeodomain DNA-binding domain
# T1 sequence: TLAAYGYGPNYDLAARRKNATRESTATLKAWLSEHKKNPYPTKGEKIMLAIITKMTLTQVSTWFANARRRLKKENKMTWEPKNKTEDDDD
# Experiment: PBM E-score (8-mer, recovered from the published 9-mer minima) (E-score (dimensionless, -0.5 to 0.5)); Drosophila protein; higher = stronger relative binding preference, active = 0.31 or more
# Method in brief: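 Caup's homeodomain DNA-binding domain (residues 214-303) was made by in vitro transcription and translation and applied at 100 nM to custom-designed protein binding microarrays. Each value is an enrichment score that gives relative binding preference for a short DNA word, with higher meaning stronger. The 8-mer values were recovered from published 9-mer scores, each of which was the minimum of its two constituent 8-mer scores. A cutoff of 0.31 marks candidate sites.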
row,Sequence,PBM E-score
1,CATGCCCA,inactive: -0.063
2,CCCTAATC,inactive: -0.114
3,GCGGCCGC,inactive: -0.272
4,ACACTCAT,≥ 0.179
5,ACGAAGTC,inactive: 0.00684
6,ATCTTGGA,inactive: 0.0382
7,AGGCCAAC,inactive: -0.05
8,GTTGTTTA,active: 0.343
9,CGAGACAC,inactive: 0.0289
10,CAGACCGG,inactive: -0.146
11,CTGAATCA,inactive: 0.086
12,GCATGGAC,inactive: -0.00539
13,CGATCGAG,inactive: -0.0588
14,GCATAACA,inactive: 0.255
15,ATTGATGC,inactive: 0.0751
16,ACTTATCT,inactive: 0.143
17,ACGGTTTA,inactive: 0.0386
18,CCGGCACA,inactive: -0.0919
19,ATATAAAA,inactive: 0.0961
20,AGAGGCCG,inactive: -0.207
21,GTGAACGA,inactive: 0.085
22,GCTTTTAC,inactive: 0.158
23,CCATCGGA,inactive: -0.166
24,CTCGTGAA,inactive: 0.027
25,GACCTAGC,inactive: -0.155

row,Sequence,PBM E-score
1,GCGGTTAA,inactive: -0.0974
2,CACGAGAA,inactive: 0.0323
3,CACGGCAG,inactive: -0.0642
4,CGTCCGAA,inactive: -0.115
5,GTCTTTTA,inactive: 0.0341
6,AACGGCGC,inactive: -0.211
7,AGATTTTC,inactive: 0.0235
8,CGTCAGAC,inactive: -0.0541
9,ATAGGTCC,inactive: 0.0255
10,ATGATGTG,inactive: 0.0894
11,AACGTAAA,inactive: 0.103
12,CTGCGCTC,inactive: -0.226
13,AGTGCCCG,inactive: -0.193
14,AACCCTAA,inactive: 0.0678
15,AGCCCCTG,inactive: -0.19
16,ATAGAAGG,inactive: -0.0699
17,GCAAGTGC,inactive: -0.0754
18,GACGTCAA,inactive: 0.0555
19,ACGCGTCT,inactive: -0.083
20,GCACGGGC,inactive: -0.224
21,ATCTTTTA,inactive: 0.055
22,CTGAATGA,inactive: 0.0197
23,AAAGCCGT,inactive: -0.0663
24,AAAACTGC,inactive: 0.0115
25,CTAGGAAC,inactive: -0.0383

row,Sequence,PBM E-score
1,CTACAGCC,inactive: -0.0503
2,ACAGGGCC,inactive: -0.0239
3,ACGGTCGA,inactive: -0.0338
4,CGCATGCG,inactive: -0.112
5,AACCGTTG,inactive: 0.0996
6,CGTGGACA,inactive: 0.101
7,GGAGATCA,inactive: -0.0646
8,ATGGGGCA,inactive: -0.128
9,CAACTGAA,inactive: 0.0384
10,CCGCCGAA,inactive: -0.138
11,ACCCAGGC,inactive: -0.17
12,CTCGCAAG,inactive: -0.0376
13,AGTATTAA,inactive: 0.16
14,AGTGATGA,inactive: 0.111
15,GTGAGTTA,inactive: 0.00272
16,CGCGGGAA,inactive: -0.147
17,GGACATAA,inactive: 0.211
18,AGCACCCC,inactive: -0.192
19,ACATCTAT,inactive: 0.236
20,CTCCAGAA,inactive: -0.0942
21,AACAAGTC,inactive: 0.278
22,CTCGGGGA,inactive: -0.097
23,AAGACATA,inactive: 0.229
24,CAACACCC,inactive: 0.104
25,GTGTTGTA,active: 0.395

row,Sequence,PBM E-score
1,AGGCTAAC,inactive: 0.0453
2,CGGCGGTC,inactive: -0.242
3,CCTCACTC,inactive: -0.0788
4,ATAATAAG,inactive: 0.145
5,TAGTAAGA,≥ 0.156
6,CTCGCCCC,inactive: -0.264
7,AACCGGCT,inactive: -0.0645
8,ACGCTGAT,≥ 0.0517
9,GTAAAATA,inactive: 0.0769
10,ATAGCTTG,inactive: 0.0692
11,GTCAGGAA,inactive: 0.0693
12,CCACCTTA,inactive: -0.14
13,CAGTGTCC,inactive: 0.0457
14,CATTTCCA,inactive: 0.0721
15,GCTTAAAA,inactive: -0.0795
16,ATACTGCC,inactive: -0.0107
17,CGTATAAC,inactive: 0.0722
18,ACGGCGTC,inactive: -0.143
19,AATTGGTG,inactive: 0.104
20,GCGTCCAC,inactive: -0.155
21,CGATATCC,inactive: 0.0525
22,AATGAGCG,inactive: 0.00941
23,AACTGACC,inactive: -0.0913
24,CGATGTAA,inactive: 0.276
25,ATACAAGA,active: 0.322

row,Sequence,PBM E-score
1,GGATCTAC,inactive: 0.0541
2,CATCACGG,inactive: -0.0272
3,ACGCGTAG,inactive: -0.0214
4,CTCCATCC,inactive: -0.0505
5,GGTATGGA,inactive: -0.0147
6,AACAACCA,active: ≥ 0.324
7,GACTAGGC,inactive: -0.0927
8,CTAAGCAC,inactive: -0.0341
9,TCGAAAGA,inactive: -0.0338
10,CCCAATGA,inactive: 0.0122
11,AAGGTGCT,inactive: -0.0707
12,CCCATGTC,inactive: 0.309
13,CTCCCTTA,inactive: -0.106
14,ACTAGTGA,inactive: 0.113
15,ATTAACCC,inactive: 0.0459
16,TAGAATCA,inactive: 0.0986
17,CGGGCCAC,inactive: -0.27
18,CCATCCTA,inactive: -0.044
19,AAAACTTG,inactive: 0.05
20,GCTTGGAC,inactive: -0.0623
21,AGTAGCGC,inactive: -0.062
22,GGTCGCCA,inactive: -0.204
23,GCAGCCGC,inactive: -0.318
24,CTAAATTA,inactive: 0.0334
25,AATGCGAC,inactive: 0.0137

row,Sequence,PBM E-score
1,GCCCAAGC,inactive: -0.199
2,CACGGGAC,inactive: 0.00904
3,GCCGAGCC,inactive: -0.204
4,ACACTCGA,inactive: 0.0207
5,CGTGCTGC,inactive: -0.143
6,AATAGATG,inactive: 0.0976
7,GTTAGTTA,inactive: 0.192
8,CCCAGCCG,inactive: -0.299
9,GTACTTTA,inactive: 0.123
10,CTGCAACC,inactive: -0.0196
11,AACTGATA,inactive: 0.146
12,CTCTCCGC,inactive: -0.231
13,CATTTGAA,inactive: 0.0239
14,CACTGTCC,inactive: 0.0264
15,GGACCTTA,inactive: -0.127
16,CGTACTAG,inactive: 0.107
17,CCCTAGGC,inactive: -0.196
18,TAGTGAAA,inactive: 0.126
19,AAAAGTTC,inactive: 0.0847
20,GGTACCAA,inactive: 0.0374
21,AAACTCTG,inactive: 0.024
22,CGGGCACC,inactive: -0.188
23,AGAGGCGG,inactive: -0.193
24,ATGACCGA,≥ 0.0243
25,CTACCCGA,inactive: -0.0664

row,Sequence,PBM E-score
1,CGCAAGTC,inactive: -0.0559
2,AGTGTATC,inactive: 0.186
3,CCCTTGCG,inactive: -0.163
4,TATACCCA,inactive: -0.0655
5,ATGCGTAA,inactive: 0.0731
6,CGGGTATA,inactive: 0.0282
7,AGAGCACT,inactive: -0.112
8,AGGGTCGG,inactive: -0.154
9,AGCCTATA,inactive: -0.0255
10,GCCCACTA,inactive: -0.0581
11,CATAAGGG,inactive: -0.078
12,GAAACACC,inactive: 0.116
13,CCGCTGGC,inactive: -0.222
14,AGTGAGAT,inactive: -0.0217
15,AATTGATC,inactive: 0.0461
16,AGTCCCCG,inactive: -0.156
17,GAAACAAC,inactive: 0.161
18,ACTTTCTA,≥ 0.0685
19,CGAGCTGC,inactive: -0.142
20,TAAGACCA,inactive: 0.0445
21,GGTCTAAA,inactive: -0.0393
22,CTCCACCA,inactive: -0.13
23,ACATACGG,inactive: 0.14
24,GGACCAGA,inactive: -0.104
25,AATACTGA,inactive: 0.143

row,Sequence,PBM E-score
1,AATGGCAT,inactive: 0.0414
2,GGAGGACA,inactive: 0.0978
3,ATGCTTCA,inactive: 0.061
4,GGGGGCTA,inactive: -0.254
5,AGAACTGG,inactive: -0.0455
6,AACGACCA,inactive: 0.102
7,CGTCGGAC,inactive: -0.119
8,TACAGGGA,inactive: 0.0542
9,AAGCGACC,inactive: 0.0153
10,GGTAGGCA,inactive: -0.105
11,AATTTCCA,≥ 0.145
12,CACGCAAA,inactive: 0.0933
13,CAGCTTAC,inactive: 0.0155
14,ATCGTACC,inactive: -0.0488
15,AAGTCCAA,inactive: 0.025
16,AGCTGCTC,inactive: -0.0828
17,GGGACTAA,inactive: -0.0755
18,AAAGGTGC,inactive: -0.0982
19,GCACGGAA,inactive: -0.0343
20,GCGCATCA,inactive: -0.0471
21,CGAGTTGA,inactive: 0.0454
22,AGGTAGAA,inactive: 0.0148
23,AAAAGGGC,inactive: -0.109
24,CTAGACCA,inactive: -0.0808
25,CTGGTCAA,inactive: -0.0384

row,Sequence,PBM E-score
1,CCGTACCG,inactive: -0.141
2,ATTTAGAA,inactive: 0.00688
3,AAGCGGCC,inactive: -0.218
4,CGGCCTGA,inactive: -0.21
5,ATACACCG,inactive: 0.184
6,ATATTATA,inactive: 0.259
7,ACGGAAGA,inactive: -0.0381
8,AGACCATC,inactive: -0.0686
9,GAGGATGA,inactive: -0.0942
10,CAGGTCTA,inactive: 0.0239
11,CCGGTCTA,inactive: -0.187
12,AGGAGCTC,inactive: -0.187
13,AACCATTA,≥ 0.182
14,AGCTCCGG,inactive: -0.212
15,CTACGACC,inactive: 0.0644
16,CACTCCTC,inactive: -0.106
17,CAGTGTAA,inactive: 0.218
18,GACAAAGA,inactive: 0.13
19,GGCACAAA,inactive: -0.0114
20,GGACCCAC,inactive: -0.208
21,CACGAGCG,inactive: -0.124
22,CGGCGCTC,inactive: -0.225
23,TCGCGTAA,inactive: 0.0536
